# Assay results from PubChem BioAssay AID1347165 (National Center for Advancing Translational Sciences (NCATS), 2019).
# The campaign covered roughly 220,000 compounds. About 5,700 (2.6%) were called active. The inconclusive results got no clear call from the source; some entries with a clear call stand among them for comparison. Calls follow the shape of the dose curve; as a rule, active = well fitted inhibition curve with a large enough effect; inconclusive = small, poorly fitted or top-dose-only effect; inactive = no such curve, though single readings can be large or run the other way. Potencies of inconclusive entries are doubtful fits and often do not repeat.
# Biological target: Lysine-specific demethylase 5B (Homo sapiens) (UniProt Q9UGL1)
# UniProt Q9UGL1, sequence (Q9UGL1 whole entry, looked up): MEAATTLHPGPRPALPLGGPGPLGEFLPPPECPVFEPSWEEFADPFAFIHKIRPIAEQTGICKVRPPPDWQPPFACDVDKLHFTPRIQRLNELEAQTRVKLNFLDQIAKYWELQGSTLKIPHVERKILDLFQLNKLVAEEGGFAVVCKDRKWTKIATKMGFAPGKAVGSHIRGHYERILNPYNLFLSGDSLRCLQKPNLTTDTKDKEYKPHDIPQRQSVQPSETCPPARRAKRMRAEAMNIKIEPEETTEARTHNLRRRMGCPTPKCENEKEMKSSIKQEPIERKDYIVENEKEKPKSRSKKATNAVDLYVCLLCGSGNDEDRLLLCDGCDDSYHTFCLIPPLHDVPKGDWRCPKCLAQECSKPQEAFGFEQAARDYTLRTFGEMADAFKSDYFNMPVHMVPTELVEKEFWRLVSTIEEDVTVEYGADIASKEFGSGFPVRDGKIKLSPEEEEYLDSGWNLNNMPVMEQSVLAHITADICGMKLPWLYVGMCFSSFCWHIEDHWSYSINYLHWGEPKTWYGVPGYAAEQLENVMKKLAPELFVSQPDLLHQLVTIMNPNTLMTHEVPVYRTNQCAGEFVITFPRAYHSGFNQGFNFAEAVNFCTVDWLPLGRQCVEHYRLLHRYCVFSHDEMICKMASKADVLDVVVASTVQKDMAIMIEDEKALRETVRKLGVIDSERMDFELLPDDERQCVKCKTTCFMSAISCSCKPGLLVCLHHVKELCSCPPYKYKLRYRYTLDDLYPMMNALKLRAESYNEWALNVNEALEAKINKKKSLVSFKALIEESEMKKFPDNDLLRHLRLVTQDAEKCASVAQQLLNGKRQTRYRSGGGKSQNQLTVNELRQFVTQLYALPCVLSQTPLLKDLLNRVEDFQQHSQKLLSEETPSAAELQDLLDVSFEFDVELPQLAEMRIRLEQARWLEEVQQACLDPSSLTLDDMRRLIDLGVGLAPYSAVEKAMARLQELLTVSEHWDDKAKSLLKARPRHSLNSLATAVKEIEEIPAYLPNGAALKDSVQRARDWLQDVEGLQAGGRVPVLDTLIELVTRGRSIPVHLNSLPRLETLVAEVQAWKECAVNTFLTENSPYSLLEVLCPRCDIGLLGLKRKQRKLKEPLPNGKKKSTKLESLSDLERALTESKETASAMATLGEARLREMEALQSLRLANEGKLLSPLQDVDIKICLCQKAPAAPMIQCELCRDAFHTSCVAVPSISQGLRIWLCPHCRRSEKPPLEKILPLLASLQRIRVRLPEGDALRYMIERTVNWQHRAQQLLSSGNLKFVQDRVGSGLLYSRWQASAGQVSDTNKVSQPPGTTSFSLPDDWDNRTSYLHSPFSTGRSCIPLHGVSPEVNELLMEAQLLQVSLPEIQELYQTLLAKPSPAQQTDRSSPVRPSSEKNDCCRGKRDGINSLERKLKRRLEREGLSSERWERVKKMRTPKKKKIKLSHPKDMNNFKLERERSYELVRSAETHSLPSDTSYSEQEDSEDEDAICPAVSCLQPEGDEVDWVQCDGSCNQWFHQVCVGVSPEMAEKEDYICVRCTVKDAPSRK
# Assay: Primary screen for KDM5B Histone Demethylases FDH-coupled qHTS; also: nearly all actives have a fitted effect of over 70% in size; as to activity change, negative = inhibition: 0% is about no effect
# Details: FDH-coupled NADH fluorescence (FDH is formaldehyde dehydrogenase); activity change, negative = inhibition: at 57.7 µM (top of the series) unless noted
# How it was run: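 Measured: NADH fluorescence change, 30 min, RT. System: KDM5BΔAP 200 nM final, H3K4me3 peptide, α-KG, Fe(II), ascorbate, NAD⁺ plus FDH, pH 7.5 HEPES. Compounds: titrated, 10 min pre-incubation with enzyme.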
# Potency is read from the fitted curve at half-maximal effect; tags tell the direction and shape of the fitted curve.
Compound,Potency,"activity change, negative = inhibition"
COC(=O)c1ccc(CNC(=O)C2Cc3ccccc3O2)cc1 (stereo not given),inactive,–
COc1ccc(Cl)cc1NC(=O)c1ccc2c(c1)CCN2S(C)(=O)=O,"inconclusive: 39.8 µM [inhibitor, single point]",–
Cc1cc(NC(=O)CSc2nc(-c3ccccc3C)nc3c2c(=O)n(C)c(=O)n3C)no1,inactive,–
CCOc1ccc2oc(=O)cc(CN3CCN(CC(=O)Nc4ccc5c(c4)OCCO5)CC3)c2c1,inactive,–
COCCC1(CO)CCCN(Cc2ccc(C#N)cc2)C1 (stereo not given),"inconclusive: 25.1 µM [inhibitor, partial curve, poor fit]",–
O=C(CSc1ccccc1C(=O)Nc1ccc2c(c1)OCCO2)NCc1ccco1,inactive,–
O=C(CCNC(=O)c1ccoc1)Nc1ccc(N2CCCC2)nc1,"inconclusive: 31.6 µM [inhibitor, single point]",–
O=C(NCCc1ccccc1)C1CCN(Cc2cc3ccccc3n2Cc2cccc(Cl)c2)CC1,"inconclusive: 25.1 µM [inhibitor, partial curve, poor fit]",–
CN(C)C[C@@H]1CN(Cc2ccccc2)C[C@H]1NC(=O)c1cnn(C)c1,"inconclusive: 35.5 µM [inhibitor, partial curve, poor fit]",–
COC(=O)c1ccc(C2C(C(=O)OC)C(=O)CC(C)(O)C2C(=O)OC)cc1 (stereo not given),inactive,–
O=C(N[C@H]1CO[C@H]2[C@@H]1OC[C@@H]2Nc1nccc(-c2cccc(F)c2)n1)C1CC1,"inconclusive: 31.6 µM [inhibitor, single point]",–
O=C(NCC1Cn2cccc2CN1Cc1ccccc1)c1ccsc1 (stereo not given),active: 25.1 µM,–
CCCCn1nnc(NC(=O)c2cc3ccccc3cc2OC)n1,"inconclusive: 22.4 µM [inhibitor, partial curve, poor fit]",–
Cc1ccc(-c2cc(-c3ccco3)c(C#N)c(=O)[nH]2)cc1,"inconclusive: 8.91 µM [inhibitor, full curve, poor fit]",–
Cc1ccsc1CN1CCC[C@H]1C(=O)N1CCCCCCNC(=O)CC1,"inconclusive: 12.6 µM [inhibitor, single point]",–
N#CC1CCN(C(=O)c2nc(-c3ccccc3)c3ccccn23)CC1,active: 35.5 µM,–
COc1ccc(CCC(=O)NCc2nc3cccnc3n2Cc2ccc(F)cc2)cc1,–,inconclusive: -40.6% [inhibitor]
CC1CCN(S(=O)(=O)c2ccc3c(c2)c(=O)c(C(=O)NC(C)c2ccccc2)cn3C)CC1 (stereo not given),"inconclusive: 28.2 µM [inhibitor, partial curve, poor fit]",–
Cc1ccc(-c2nnc(Nc3cccc(O)c3)c3ccccc23)cc1S(=O)(=O)NCC1CCCO1 (stereo not given),"inconclusive: 25.1 µM [inhibitor, partial curve, poor fit]",–
CCCS(=O)(=O)Nc1ccc([C@H]2OCC(=O)N(CC(=O)N(C)C)[C@@H]2CO)cc1,"inconclusive: 7.08 µM [inhibitor, single point]",–
COc1ccc2[nH]c(C[C@@H]3C[C@@H](C(C)C)[C@H](CNC(=O)c4cccnc4)C=C3C)nc2n1,"inconclusive: 31.6 µM [inhibitor, partial curve, poor fit]",–
NS(=O)(=O)c1ccc(CCNc2ncnc3c2cnn3-c2cccc(Cl)c2)cc1,"inconclusive: 28.2 µM [inhibitor, partial curve, poor fit]",–

Compound,Potency,"activity change, negative = inhibition"
Cc1ccc(CNC(=O)CCC2CCN(S(=O)(=O)c3ccccc3)CC2)o1,"inconclusive: 35.5 µM [inhibitor, partial curve, poor fit]",–
CC(=O)c1ccc(NC(=O)COc2ccccc2C(=O)Nc2ccccc2)cc1,"inconclusive: 39.8 µM [inhibitor, partial curve, poor fit]",–
CCOC(=O)c1c(S(=O)(=O)NCC(=O)N2CCCCC2)c(C)n(C)c1C,inactive,–
CCCOc1ccc(-c2nc(C#N)c(NCCCN(C)C)o2)cc1,inactive,–
Cc1ncc(CN=Cc2ccc(Cl)cc2)c(N)n1,"inconclusive: 10 µM [inhibitor, partial curve, poor fit]",–
CCn1cc(C(=O)NN)c(=O)c2cc(F)c(N3CCOCC3)cc21,"inconclusive: 17.8 µM [inhibitor, single point]",–
CCc1cccc(NC(=O)N2CCc3c(c4cc(F)ccc4n3C)C2)c1,active: 25.1 µM,–
COCCN(Cc1ccc(C(C)C)cc1)Cc1cc(=O)n2c3c(sc2n1)CCCC3,"inconclusive: 28.2 µM [inhibitor, partial curve, poor fit]",–
COCc1nc2nc(-c3ccccc3)c(-c3ccc(OC)cc3)cc2n1C,active: 31.6 µM,–
Cc1ccc(CNC(=O)c2c(O)nc3cc(C)ccn3c2=O)cc1,"inconclusive: 35.5 µM [inhibitor, single point]",–
CC(c1ccccc1)n1cc2c(c1-c1ccccc1Br)c(=O)n(C)c(=O)n2C (stereo not given),"inconclusive: 25.1 µM [inhibitor, partial curve, poor fit]",–
CN(C)c1cc(CNC(=O)C2COc3ccccc3O2)ccn1 (stereo not given),"inconclusive: 25.1 µM [inhibitor, single point]",–
COc1cccc(NC(=O)CCc2c(C)nc3nc(CNC(=O)c4cccc(F)c4)nn3c2C)c1,"inconclusive: 2.82 µM [inhibitor, full curve, poor fit]",–
Cc1cccc2c(-c3ccccc3)c(-c3ccccc3)[nH]c12,"inconclusive: 20 µM [inhibitor, partial curve, poor fit]",–
Cc1cccc(N2C(=O)c3ccc(C(=O)Nc4cccc(C(=O)O)c4)cc3C2=O)c1,inactive,–
Cn1cc([C@@H](NC(=O)c2ccccc2N2CCCC2)C2CC(O)C2)cn1 (stereo not given in full),active: 22.4 µM,–
Cc1ccc(Cl)cc1N1CCN(C(=O)c2c(C)oc3ncnc(N4CCCCC4)c23)CC1,"inconclusive: 14.1 µM [inhibitor, partial curve, poor fit]",–
CCOC(=O)c1[nH]c(C)c(C(=O)OC(C)C(=O)OC)c1C (stereo not given),inactive,–
CCOC(=O)c1cc(-c2ccccc2)sc1NC(=O)CCN1CCN(C)CC1,"inconclusive: 28.2 µM [inhibitor, partial curve, poor fit]",–
CCC(C)NC(=O)NCCc1noc(-c2ccncc2)n1 (stereo not given),inactive,–
COCC1CN(C2CCC2)CC12CCN(C(=O)NCc1ccc(F)cc1)CC2 (stereo not given),"inconclusive: 15.8 µM [inhibitor, partial curve, poor fit]",–
CCCCOc1cccc(C(=O)Nc2cc(NC(=O)c3ccco3)ccc2OC)c1,"inconclusive: 44.7 µM [inhibitor, single point]",–

Compound,Potency,"activity change, negative = inhibition"
CC1=C[C@@H](CNC(=O)COCC(=O)O)[C@H](C(C)C)C[C@H]1Cc1nc2c(C)cccc2[nH]1,"inconclusive: 31.6 µM [inhibitor, partial curve, poor fit]",–
CCc1ccc(CN2CCc3nc(N4CCN(c5ccccc5F)CC4)ncc3C2)cc1,"inconclusive: 31.6 µM [inhibitor, partial curve, poor fit]",–
COc1ccnc(N2C[C@@H]3OCC(=O)N(CC4CC4)[C@@H]3C2)n1,"inconclusive: 35.5 µM [inhibitor, single point]",–
COc1ccc2c(c1C)CCC/C2=N\OC(=O)c1ccccc1F,inactive,–
Cc1cc(CN(C)Cc2cn(-c3cccc(F)c3)nc2-c2ccc(C)o2)n[nH]1,active: 25.1 µM,–
CC(NC(=O)CSc1nnnn1-c1ccc(O)cc1)c1ccc2c(c1)CCCC2 (stereo not given),"inconclusive: 39.8 µM [inhibitor, partial curve, poor fit]",–
O=C(NCc1ccc2c(c1)OCO2)c1cnc2c(c1)N(Cc1ccccc1)CCC2,"inconclusive: 35.5 µM [inhibitor, partial curve, poor fit]",–
CCC(C)N1CCC(CN)C1 (stereo not given),inactive,–
COCCNC(=O)COc1ccc2c(C)cc(=O)oc2c1,"inconclusive: 28.2 µM [inhibitor, partial curve, poor fit]",–
Cc1ccc(C2C3=C(CCCC3=O)Nc3nc(SCCC(C)C)[nH]c(=O)c32)o1 (stereo not given),"inconclusive: 14.1 µM [inhibitor, single point]",–
O=C(Cc1ccccn1)NCC1COc2ncncc2C(=O)N1Cc1ccccc1 (stereo not given),"inconclusive: 31.6 µM [inhibitor, partial curve, poor fit]",–
Cn1nc(C(=O)Nc2ccc(C(C)(C)C)cc2)c2ccccc2c1=O,inactive,–
Cc1cccc(-c2nnn3c2nc(NCc2ccc4c(c2)OCO4)c2ccccc23)c1,"inconclusive: 12.6 µM [inhibitor, partial curve, poor fit]",–
O=C1c2cnc(-c3ccoc3)nc2OCCN1Cc1ccc(F)cc1F,active: 35.5 µM,–
COc1ccc(-c2cc(N3CCC(NC(=O)c4ccc(N(C)C)cc4)C3)n[nH]2)cc1 (stereo not given),"inconclusive: 11.2 µM [inhibitor, partial curve, poor fit]",–
COc1cc(OC)c(C(=O)OCC(=O)Nc2ccccc2)cc1OC,inactive,–
Cc1ccsc1C(=O)NC1CCCN(c2cc(-c3ccc(F)cc3)[nH]n2)C1 (stereo not given),"inconclusive: 28.2 µM [inhibitor, partial curve, poor fit]",–
Cc1ccc(-c2cc3c(=O)n(CCNC(=O)Cc4ccccc4Cl)ccn3n2)cc1C,"inconclusive: 39.8 µM [inhibitor, single point]",–
Cc1cccc(NC(=O)CN2C(=O)N/C(=C\c3ccccc3OCc3ccc(C(=O)O)cc3)C2=O)c1,"inconclusive: 20 µM [inhibitor, single point]",–
CC(C)=CCC1(CO)CCCN(Cc2[nH]c3ccc(F)cc3c2C)C1 (stereo not given),inactive,–
CCn1cc(S(=O)(=O)N2CC(Oc3cccc(-c4nc(C)no4)c3)C2)cn1,"inconclusive: 14.1 µM [inhibitor, partial curve]",–
